Experiment [1] concerns TF-1 cells. Briefly: Inhibition of IL-3-dependent proliferation of TF-1 cells (WST-8). The experiment is classed as cell-based, human. The following applies: dose-response. How it is done:
(§1) The ability of anti-CD123 antibodies to inhibit IL3-mediated signaling and proliferation was examined in vitro using the erythroleukemia cell line TF-1 that can proliferate only in the presence of one of the following growth factors, either IL-3 or GM-CSF. TF-1 cells were cultured in the complete RPMI medium (RPMI-1640, 10% fetal bovine serum and 50 μg/mL gentamicin sulfate; all reagents were from Invitrogen) supplemented with GM-CSF (2 ng/mL). Prior to setting up the proliferation assays, the cells were washed and then starved of the growth factors overnight. […] TF-1 cells were plated at 6,000 cells per well in the complete RPMI medium in either the presence or absence of 10 μg/mL of an anti-CD123 antibody. A growth factor, either IL-3 (1 ng/mL) or GM-CSF (2 ng/mL), was added to the cells to initiate cell proliferation. […] The relative numbers of viable cells in each well were determined by the colorimetric WST-8 assay (Dojindo Molecular Technologies, Inc., Rockville, MD, US). WST-8 is reduced by dehydrogenases in viable cells to an orange formazan product that is soluble in tissue culture medium. The amount of formazan produced is directly proportional to the number of viable cells. […] Then the absorbance was measured on a plate-reader spectrophotometer in the dual wavelength mode 450 nm/650 nm, and the absorbance at the 650 nm (non-specific light scattering by cells) was subtracted from that at the 450 nm.
TF-1 cells were plated at 6,000 cells per well in 100 μL culture medium. The antibodies were diluted into the culture medium using 6-fold dilution series and 50 μL of the diluted material was added per well. Then IL3 was added to the cells at the final concentration 1 ng/mL. […] Relative cell number in each well was determined by WST-8 assay as described above. […] Likewise, treatment with muCD123-14 or muCD123-6 reduced the relative cell number to less than 1% at the highest antibody concentration tested, with the IC50 values of 0.08 nM or 0.05 nM, respectively.

For experiment [2], the target named is T1, CD123-expressing HNT-34 cells (Homo sapiens, UniProt P26951).
T1 construct: endogenous in cells; host or cells: HNT-34 (acute myeloid leukemia cell line)
T1 sequence (P26951 19-378): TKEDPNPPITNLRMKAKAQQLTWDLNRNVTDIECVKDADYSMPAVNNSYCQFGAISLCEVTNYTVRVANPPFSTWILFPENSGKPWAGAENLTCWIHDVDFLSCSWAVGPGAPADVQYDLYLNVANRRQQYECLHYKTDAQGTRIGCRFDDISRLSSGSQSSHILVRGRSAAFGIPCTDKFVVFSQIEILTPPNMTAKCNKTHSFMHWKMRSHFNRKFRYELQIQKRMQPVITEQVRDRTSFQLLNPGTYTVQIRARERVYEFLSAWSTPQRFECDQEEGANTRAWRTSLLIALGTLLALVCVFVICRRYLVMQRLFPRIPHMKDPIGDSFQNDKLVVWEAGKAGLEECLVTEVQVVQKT
Put plainly: Flow cytometry binding to HNT-34 cells. The following applies: FIGS. 7B and 7C. How it is done:
Binding affinity was tested by flow cytometry using purified antibodies. […] TF-1 cells (5×10^4 cells per sample) were incubated with varying concentrations of murine antibodies in 200 μL FACS buffer (DMEM medium supplemented with 2% normal goat serum). The cells were then pelleted, washed twice, and incubated for 1 hr with 100 μL of phycoerythrin (PE)-conjugated goat anti-mouse IgG-antibody (Jackson Laboratory). The cells were pelleted again, washed with FACS buffer and resuspended in 200 μL of PBS containing 1% formaldehyde. Samples were acquired using a FACSCalibur flow cytometer with the HTS multiwell sampler, or a FACS array flow cytometer, and analyzed using CellQuest Pro (all from BD Biosciences, San Diego, US). For each sample the geomean fluorescence intensity for FL2 was calculated and plotted against the antibody concentration in a semi-log plot. A dose-response curve was generated by non-linear regression and the EC50 value of each curve, which corresponds to the apparent dissociation constant (Kd) of each antibody, was calculated using GraphPad Prism v4 (GraphPad software, San Diego, CA).
FIG. 5A depicts the dose-response curves for each antibody. The value for the apparent dissociation constant (Kd) of each antibody was calculated using GraphPad Prism v4 (GraphPad software, San Diego, CA).
FIGS. 7B and 7C depict the dose-response curves for each antibody and the corresponding conjugates.

In experiment [3] the test system is TF-1 cells. Briefly: Proliferation of TF-1 cells grown in the presence of GM-CSF (IL-3-dependence control). The experiment is classed as cell-based, human. The note with it: GM-CSF 2 ng/mL. How it is done:
as §1, with “medium.” for “medium. The amount of formazan produced is directly proportional to the number of viable cells.”

Changes are numbered by the printed parent chain.

B1: huCD123-6Gv4.6: CDR-grafted humanized CD123-6 antibody, light chain variable region Gv4 and heavy chain variable region Gv6 (antibody)
heavy: QFQLVQSGAEVKKPGASVKVSCKASGYIFTSSIMHWVRQAPGQGLEWIGYIKPYNDGTKYNEKFKGRATLTSDRSTSTAYMELSSLRSEDTAVYYCAREGGNDYYDTMDYWGQGTLVTVSS[here human IgG1 constant region without letters]
light: DIQMTQSPSSLSASVGDRVTITCRASQDINSYLSWFQQKPGKAPKTLIYRVNRLVDGVPSRFSGSGSGNDYTLTISSLQPEDFATYYCLQYDAFPYTFGQGTKVEIKRTVAAPSVFIFPPSDEQLKSGTASVVCLLNNFYPREAKVQWKVDNALQSGNSQESVTEQDSKDSTYSLSSTLTLSKADYEKHKVYACEVTHQGLSSPVTKSFNRGEC
As to B1, in the experiment on TF-1 cells [1], the “inhibition of IL-3-dependent proliferation of TF-1 cells (in words)” value (shortened to “inhibition”) was “inhibition of IL-3-dependent proliferation of TF-1 cells”.

B2: huCD123-6Gv4.7: CDR-grafted humanized CD123-6 antibody, light chain variable region Gv4 and heavy chain variable region Gv7 (antibody)
heavy: B1 heavy with F2V
light: B1 light
On to B2, for which, in the experiment with TF-1 cells [1], the “inhibition” value is “inhibition of IL-3-dependent proliferation of TF-1 cells”.

B3: huCD123-6Gv4.7S3-D2: huCD123-6Gv4.7S3 antibody Lys-linked to D2 (conjugate)
heavy: B1 heavy with F2V
light: B1 light with D1S
As for B3, the “effect of conjugation on binding affinity versus unconjugated antibody” value in experiment [2] is “only moderately affected the binding affinities”.

B4: huCD123-6Gv4.7S3-SeriMab-D8: conjugate between D8 and huCD123-6Gv4.7S3 through the oxidized N-terminal Ser on the light chain (conjugate)
heavy: B1 heavy with F2V
light: B1 light with D1S
Regarding B4, the “effect of conjugation on binding affinity versus unconjugated antibody” value in experiment [2] is recorded as “only moderately affected the binding affinities”.

B5: huCD123-6Gv4.7-CysMab-D4: huCD123-6Gv4.7-CysMab antibody Cys-linked to D4 (conjugate)
heavy: QVQLVQSGAEVKKPGASVKVSCKASGYIFTSSIMHWVRQAPGQGLEWIGYIKPYNDGTKYNEKFKGRATLTSDRSTSTAYMELSSLRSEDTAVYYCAREGGNDYYDTMDYWGQGTLVTVSS[here human IgG1 constant region with changes without letters]
light: B1 light
In the case of B5, in experiment [2], the “effect of conjugation on binding affinity versus unconjugated antibody” value is on record as “only moderately affected the binding affinities”.

B6: huCD123-6Gv4.7S3-sSPDB-D1: conjugate between D1 and huCD123-6Gv4.7S3 through Lys linkage via a sulfonated SPDB linker (conjugate)
heavy: B1 heavy with F2V
light: B1 light with D1S
Regarding B6, the “effect of conjugation on binding affinity versus unconjugated antibody” value in experiment [2] was “only moderately affected the binding affinities”.

B7: huCD123-6Gv4.7S3: huCD123-6Gv4.7 with engineered N-terminal serine on the light chain (antibody)
heavy: B1 heavy with F2V
light: B1 light with D1S
Turning to B7, the “effect on TF-1 cell proliferation in the presence of GM-CSF” value with TF-1 cells [3] is given as “no inhibitory effect”. Besides, in the experiment on TF-1 cells [1], the “inhibition” value was “completely inhibited at 1 nM”.

The record behind these values is US11897961B2, “Anti-CD123 antibodies and conjugates and derivatives thereof” (IMMUNOGEN, INC., priority 2015, dated 2024).
